In PubChem BioAssay AID360 (National Center for Advancing Translational Sciences (NCATS), 2006):
In all, about 48,000 compounds went through this assay and about 550 (1.1%) were called active. Another 4% or so got no clear call; they are omitted. Cut-off read from the data, not from the text of the source: active = potency below about 15 µM; inconclusive = mostly about 16 µM to 33 µM; inactive = weaker than that. The list shows a part of the results.
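Note: the screen sought inhibitors.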
Potency is the fitted concentration of half-maximal effect.

These compounds were tested against Lysosomal acid glucosylceramidase (Homo sapiens) (UniProt P04062) (assay: Glucocerebrosidase). Details: purified enzyme, resorufin glucoside fluorescence (screen aimed at inhibitors), 20 min.
Sequence of UniProt P04062 (P04062 whole entry, looked up): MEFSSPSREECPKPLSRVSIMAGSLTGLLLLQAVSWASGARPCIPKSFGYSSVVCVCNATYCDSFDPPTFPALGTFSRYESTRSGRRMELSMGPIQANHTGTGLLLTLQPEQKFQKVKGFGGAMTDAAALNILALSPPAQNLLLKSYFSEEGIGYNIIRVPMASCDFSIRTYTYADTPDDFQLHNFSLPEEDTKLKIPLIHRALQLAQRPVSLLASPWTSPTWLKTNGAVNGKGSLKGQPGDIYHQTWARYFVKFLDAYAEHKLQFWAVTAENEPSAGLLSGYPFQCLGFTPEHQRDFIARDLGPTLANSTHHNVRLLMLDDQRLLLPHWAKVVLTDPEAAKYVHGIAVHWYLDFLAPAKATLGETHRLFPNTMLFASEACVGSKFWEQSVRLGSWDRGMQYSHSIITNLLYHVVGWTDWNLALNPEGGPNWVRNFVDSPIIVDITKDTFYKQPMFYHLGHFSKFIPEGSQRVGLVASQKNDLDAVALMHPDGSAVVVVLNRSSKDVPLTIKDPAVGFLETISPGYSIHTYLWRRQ
Summary of the method: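 Normal human glucocerebrosidase (0.2 nM final) was assayed with resorufin β-D-glucopyranoside (30 uM final) in 50mM citric acid/KH2PO4, 10mM sodium taurocholate, 0.01% tween-20, pH 5.9. Compounds were titrated; fluorescence (Ex 548, Em 600) read after 20 min at RT.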
CNC(=O)Cn1nc(C)c2ccccc2c1=O was tested, and the Potency was inactive: > 76.9 µM.
In the case of Cc1cc2nc(NC3=NCN(Cc4cccnc4)CN3)nc(C)c2cc1C, the Potency is reported as inactive: > 76.9 µM.
For CC(NC(=O)C(C)(C)C)c1nc2ccccc2n1C (centres undefined), the Potency was inactive: > 76.9 µM.
In the case of O=C(O)c1ccccc1NS(=O)(=O)c1ccccc1C(F)(F)F, the Potency is reported as inactive: > 76.9 µM.
COC(=O)c1ccccc1NC(=O)NCc1ccc2c(c1)OCO2 was tested, and the Potency was inactive: > 76.9 µM.
In the case of Cc1ccc(Cn2c(SCC(=O)Nc3cccc(C)n3)nc3c2c(=O)n(C)c(=O)n3C)cc1, the Potency is reported as inactive: > 76.9 µM.
With COC(=O)CCS(=O)(=O)c1ccc(Cl)c(Cl)c1 the Potency was inactive: > 76.9 µM.
For COCCCNC(=O)CCn1c(=O)c2ccccc2n(CC(=O)Nc2cc(Cl)ccc2C)c1=O, the Potency was inactive: > 76.9 µM.
With CCOC(=O)N1CCN(C(=O)Nc2sc3nc4n(c(=O)c3c2C)CCC(C)CC4)CC1 (centres undefined) the Potency was inactive: > 76.9 µM.
In the case of Cc1c(NC(=O)c2cc(-n3cnnc3)ccc2Cl)cccc1-c1nc2ccccc2o1, the Potency is reported as inactive: > 76.9 µM.
For CC(=O)OC1CC(C)(C)N(OC(=O)c2ccccc2)C(C)(C)C1, the Potency was inactive: > 76.9 µM.
For Cc1occc1-c1nc(-c2ccncc2)no1, the Potency was inactive: > 76.9 µM.
In the case of COc1ccccc1NC(=O)CSc1nc2ccccc2c(=O)n1CCNC(C)=O, the Potency is reported as inactive: > 76.9 µM.
For CCOc1ccc(-n2c(=O)c3sccc3n(CC(=O)NCc3ccco3)c2=O)cc1, the Potency was inactive: > 76.9 µM.
CCOC(=O)N1CCC2(CC1)C(C#N)=C(N)Oc1c2sc2nc(C)cc(C)c12 was tested, and the Potency was inactive: > 76.9 µM.
In the case of COc1ccccc1C1(CC(=O)O)CCOC(C(C)C)C1 (centres undefined), the Potency is reported as inactive: > 76.9 µM.
With CCCCNC(=O)OCCNC(=O)NC the Potency was inactive: > 76.9 µM.
With CC1(C)CC(=O)c2c(noc2-c2ccccc2)C1 the Potency was inactive: > 76.9 µM.
In the case of Cn1cccc1C(=O)OCc1cc(Cl)cc2c1OCOC2, the Potency is reported as active: 12.2 µM.
For Cc1nc(C)n(CC(O)COc2ccc3cc(Br)ccc3c2)n1 (centres undefined), the Potency was inactive: > 76.9 µM.
With O=C(Cn1cnc2c(nnn2Cc2ccc(F)cc2)c1=O)NCC1CCCO1 (centres undefined) the Potency was inactive: > 76.9 µM.
With COc1ccc(CCNC(=O)C2CCCN2C(=O)Nc2cccc(C(C)=O)c2)cc1OC (centres undefined) the Potency was inactive: > 76.9 µM.
With Cc1cccn2c(=O)c3cc(C(=O)N4c5ccccc5CC4C)n(C)c3nc12 (centres undefined) the Potency was inactive: > 76.9 µM.
For CC(C)COc1ccc(-c2nnc(-c3ccco3)o2)cc1, the Potency was inactive: > 76.9 µM.
With O=C(CNC(=O)c1cccs1)NCCN1CCN(c2ccccc2F)CC1 the Potency was inactive: > 76.9 µM.
For CNC(=O)c1cc2cccc(OC)c2oc1=O, the Potency was inactive: > 76.9 µM.
C/C(Cl)=C/Cn1c(SC(C)C)nc2c1c(=O)[nH]c(=O)n2C was tested, and the Potency was inactive: > 76.9 µM.
Cc1cc(C(=O)CCC(=O)N2CCN(S(=O)(=O)c3cccs3)CC2)c(C)s1 was tested, and the Potency was inactive: > 76.9 µM.
In the case of Cc1onc(-c2ccccc2Cl)c1C(N)=O, the Potency is reported as inactive: > 76.9 µM.
COCON1C(=O)CN(C(C)=O)C1c1ccc(Cl)cc1Cl (centres undefined) was tested, and the Potency was inactive: > 76.9 µM.
For O=C(CN(CCc1ccccc1)C(=O)Cn1nnc(-c2cccs2)n1)NCc1ccco1, the Potency was “inactive”.
CCc1cccc(C)c1NC(=O)CSc1nnc(-c2cc3cc(Br)ccc3o2)n1CC was tested, and the Potency was inactive: > 76.9 µM.
With O=C(CCNS(=O)(=O)c1ccc(Br)cc1)NCc1ccc2c(c1)OCO2 the Potency was inactive: > 76.9 µM.
With COc1cc(C(=O)Nc2oc(-c3ccccc3)c(-c3ccccc3)c2C#N)cc(OC)c1OC the Potency was inactive: > 76.9 µM.
With O=C1Nc2ccccc2C12OCC(COc1ccc(Cl)cc1)O2 (centres undefined) the Potency was inactive: > 76.9 µM.
In the case of COc1ccc(CNC(=O)CSc2ncnc3nc[nH]c23)cc1, the Potency is reported as “inactive”.
N#CC(C(=O)NCc1ccco1)c1nc2ccccc2nc1N1CCOCC1 (centres undefined) was tested, and the Potency was inactive: > 76.9 µM.
With Cc1oc2ncnc(N)c2c1C the Potency was inactive: > 76.9 µM.
In the case of Cc1cc(C(=O)Nc2sc(C)c(-c3ccc(F)cc3)c2C(N)=O)no1, the Potency is reported as inactive: > 76.9 µM.
With Cc1cc(C)n(Cc2ccc(C(=O)NCc3ccco3)o2)n1 the Potency was inactive: > 76.9 µM.
With CCC(C)[C@H](NC(=O)NCC1CCCO1)C(=O)OC (some centres undefined) the Potency was inactive: > 76.9 µM.
In the case of O=C(c1c[nH]c2ccc(S(=O)(=O)N3CCOCC3)cc2c1=O)N1CCN(c2ccccn2)CC1, the Potency is reported as inactive: > 76.9 µM.
For CCCCCOc1ccc(OC(=O)c2ccncc2)cc1, the Potency was inactive: > 76.9 µM.
In the case of O=C(Cn1nnc(-c2ccccc2)n1)NCc1ccc2c(c1)OCO2, the Potency is reported as inactive: > 76.9 µM.
For Nc1nonc1-c1nc2ccccc2[nH]1, the Potency was inactive: > 76.9 µM.
In the case of CCOC(=O)c1cnc(Nc2nc3ccccc3o2)nc1CSc1ncccn1, the Potency is reported as inactive: > 76.9 µM.
In the case of COc1ccccc1CN1CCCC(C(=O)N(C)Cc2ccccc2)C1 (centres undefined), the Potency is reported as inactive: > 76.9 µM.
With O=C(CSc1nnnn1-c1ccc(Cl)cc1)NC(=O)Nc1ccc2c(c1)OCCO2 the Potency was inactive: > 76.9 µM.
For CCC1CCCCN1S(=O)(=O)c1ccc2c(c1)CCN2C(=O)C1CCC1 (centres undefined), the Potency was inactive: > 76.9 µM.
With O=C(Cn1ccc2ccccc2c1=O)N1CCN(Cc2ccc3c(c2)OCO3)CC1 the Potency was inactive: > 76.9 µM.
O=C1CC(c2ccco2)Cc2nc(Nc3ccc(F)cc3)ncc21 (centres undefined) was tested, and the Potency was inactive: > 76.9 µM.
For O=C(CCNS(=O)(=O)c1ccc(Br)s1)N1CCCCC1, the Potency was inactive: > 76.9 µM.
For Cn1c(=O)c2c(nc(NCCO)n2C)n(C)c1=O, the Potency was inactive: > 76.9 µM.
With COC(=O)c1c(NC(=O)CC2NCCNC2=O)sc2c1CCCC2 (centres undefined) the Potency was inactive: > 76.9 µM.
In the case of Cc1ccc2c(c1)N(CCC(=O)NCCN1CCOCC1)C(=O)CO2, the Potency is reported as inactive: > 76.9 µM.
In the case of CCCNC(=O)CN(C)C(=O)c1n[nH]c2ccccc12, the Potency is reported as inactive: > 76.9 µM.
With CCOC(=O)N1CCC(N(CCOC)C(=O)Nc2ccc(Cl)cc2)CC1 the Potency was inactive: > 76.9 µM.
For CS(=O)(=O)NCc1nnc(SCC(=O)NC2CCCCC2)n1-c1ccc(F)cc1, the Potency was inactive: > 76.9 µM.
With Cc1cc(Nc2ccccc2)n(-c2nc3ccccc3[nH]2)n1 the Potency was inactive: > 76.9 µM.
